# Measurements: the supplement of paper PMC4604168 (melanoma cell lines)
# This is one part of the list. Repeats are few or missing, and single values can be far off.
# System: RVH-421
# Test: cell count relative to DMSO control; melanoma cells; higher = more viable cells
# Conditions: library dose: low library concentration; 72 h; first compound 0.4 µM
# 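Further: cell number obtained by counting DAPI-stained nuclei in high-throughput microscope images with image analysis software, screen run in 1,536-well plates.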
row,Structure (SMILES),cell count
1,Cn1sc(=O)n(Cc2ccccc2)c1=O + c1cc(-c2cnn3cc(-c4ccc(OCCN5CCCCC5)cc4)cnc23)ccn1 [Dorsomorphin] (partner dose 0.4 µM),111%
2,C[C@@H](N)c1ccc(C(=O)Nc2ccnc3[nH]ccc23)cc1 + Oc1nc(-c2ccc(C(F)(F)F)cc2)nc2c1CSCC2 [XAV939] (partner dose 2 µM),63.4%
3,CCCCCCCCCCCCCCCCCCOP(=O)([O-])OC1CC[N+](C)(C)CC1 [Perifosine] + Cn1cc(/C=C2\C(=O)Nc3cccnc32)c2ccccc21 [GW441756] (partner dose 0.4 µM),122%
4,C[C@@H](N)c1ccc(C(=O)Nc2ccnc3[nH]ccc23)cc1 + CN(NC(=O)CC(=O)NN(C)C(=S)c1ccccc1)C(=S)c1ccccc1 [STA4783] (partner dose 0.006 µM),76.6%
5,C[C@@H](N)c1ccc(C(=O)Nc2ccnc3[nH]ccc23)cc1 + COc1cc2ncnc(Nc3ccc(Oc4ccccc4)cc3)c2cc1OC [SrcI1] (partner dose 2 µM),58.4%
6,Cn1sc(=O)n(Cc2ccccc2)c1=O + N#Cc1c(O)c2c(-c3ccc(-c4ccccc4O)cc3)csc2[nH]c1=O [A769662] (partner dose 2 µM),81.2%
7,CCCCCCCCCCCCCCCCCCOP(=O)([O-])OC1CC[N+](C)(C)CC1 [Perifosine] + c1cc(-c2cnn3cc(-c4ccc(OCCN5CCCCC5)cc4)cnc23)ccn1 [Dorsomorphin] (partner dose 0.4 µM),89.3%
